# Laboratory results reported in patent US20130225496A1 (NOVOZYMES BIOPHARMA DK A S, published 2013).
# B1: N-terminus of HSA, C-terminus of sheep albumin (HSA-SheepC) (other)
# chain: DAHKSEVAHRFKDLGEENFKALVLIAFAQYLQQCPFEDHVKLVNEVTEFAKTCVADESAENCDKSLHTLFGDKLCTVATLRETYGEMADCCAKQEPERNECFLQHKDDNPNLPRLVRPEVDVMCTAFHDNEETFLKKYLYEIARRHPYFYAPELLFFAKRYKAAFTECCQAADKAACLLPKLDELR[letters of about 200 residues omitted]NLIKQNCELFEQLGEYKFQNALLVRYTKKVPQVSTPTLVEVSRNLGKVGSKCCKHPEAKRMPCAEDYLSVVLNQLCVLHEKTPVSDRVTKCCTESLVNRRPCFSALEVDETYVPKEFNAETFTFHADICTLSEKERQIKKQTALVELVKHKPKATKEQLKAVMDDFAAFVEKCCKADDKETCFAEEGPKLVASTQAALA
# notes: Plasmid pDB4117; also called HSA K573P/A578S/S579T/G584A
# B2: N-terminus of HSA, C-terminus of rabbit albumin (HSA-RabC) (other)
# chain: DAHKSEVAHRFKDLGEENFKALVLIAFAQYLQQCPFEDHVKLVNEVTEFAKTCVADESAENCDKSLHTLFGDKLCTVATLRETYGEMADCCAKQEPERNECFLQHKDDNPNLPRLVRPEVDVMCTAFHDNEETFLKKYLYEIARRHPYFYAPELLFFAKRYKAAFTECCQAADKAACLLPKLDELR[letters of about 200 residues omitted]NLIKQNCELFEQLGEYKFQNALLVRYTKKVPQVSTPTLVEVSRNLGKVGSKCCKHPEAKRMPCAEDYLSVVLNQLCVLHEKTPVSDRVTKCCTESLVNRRPCFSALEVDETYVPKEFNAETFTFHADICTLSEKERQIKKQTALVELVKHKPKATKEQLKAVMDDFAAFVEKCCKADDKETCFAEEGPKLVESSKATLG
# notes: Plasmid pDB4116; also called HSA K573P/A577E/A578S/Q580K/A582T
# Molecular target: T1, GST-tagged soluble human neonatal Fc receptor (shFcRn-GST) (human, UniProt P55899 part only; P61769 part only)
# T1 construct: Immobilised by amine coupling on CM5 chips (about 1500-2500 RU); Made by the methods of WO 2011/051489; also called human FcRn; not shown: GST tag
# Experiment: SPR (Biacore 3000), albumin over immobilised shFcRn-GST (~1500 RU), pH 6.0, 1:1 model
# Description: SPR experiments were carried out using a Biacore 3000 instrument (GE Healthcare). […] Phosphate buffer (67 mM phosphate buffer, 0.15 M NaCl, 0.005% Tween 20) at pH 6.0) was used as running buffer and dilution buffer.
# T1 sequence (P55899 24-290 limits assumed, chain 1 of 2): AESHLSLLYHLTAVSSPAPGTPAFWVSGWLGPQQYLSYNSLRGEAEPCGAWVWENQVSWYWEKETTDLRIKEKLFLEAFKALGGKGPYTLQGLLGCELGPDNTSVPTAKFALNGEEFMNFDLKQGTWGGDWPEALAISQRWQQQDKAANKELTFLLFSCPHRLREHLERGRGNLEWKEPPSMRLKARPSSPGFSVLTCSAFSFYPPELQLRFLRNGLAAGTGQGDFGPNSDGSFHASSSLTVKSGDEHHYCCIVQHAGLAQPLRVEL
# T1 sequence (P61769 21-119 limits assumed, chain 2 of 2, further chain): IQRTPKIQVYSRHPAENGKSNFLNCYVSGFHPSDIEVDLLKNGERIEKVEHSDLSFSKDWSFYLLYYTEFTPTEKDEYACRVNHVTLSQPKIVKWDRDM
Binder,Kd,koff,kon
B1,600 nM,0.0021 s⁻¹,3300 M⁻¹ s⁻¹
B2,400 nM,0.0016 s⁻¹,3500 M⁻¹ s⁻¹
